Laboratory results: US11542275B2, “Substituted imidazolidin-2-one derivatives as PRMT5 inhibitors” (Aurigene Discovery Technologies Limited, priority 2018, dated 2023)

Target: PRMT5/MEP50 Complex (Homo sapiens (Human), UniProt O14744)
Assay: PRMT5 inhibition based on TR-FRET assay
Assay type: biochemical
Conditions: 32 nM PRMT5:MEP50 complex, 50 nM Histone-H4 peptide, 1 μM SAM, 90 minutes at room temperature
Description: Protein arginine methyltransferase 5 (PRMT5) is a type II arginine methyltransferase that catalyze mono- and symmetric demethylation on arginine residues of histone or non-histone proteins in presence of S-adenosylmethionine (AdoMet or SAM) a cofactor responsible for donating the methyl group. PRMT5 is reported to be overexpressed in several human cancers. To identify compounds that inhibit the PRMT5 and decrease its activity, a TR-FRET based assay has been established. Time-resolved fluorescence resonance energy transfer (TR-FRET) HTS assays are homogeneous proximity assays where the interaction of two dye-labeled binding partners is detected by the energy transfer between a donor and an acceptor dye, and the subsequent light emission by the acceptor dye. PRMT5 catalyzes Histone H4 peptide which is biotin tagged to the Lysine amino acid at carboxyl end, in presence of S-adenosyl-1-methionine (SAM) to methylate the peptide. The antibody specific to mono methylated H4 peptide (H4R3) with Ig conjugate binds to the methylated peptide, indirectly binding to the Europium lanthanide. […]
The compound dilutions were prepared as 7.5% DMSO stock solutions in assay buffer. […] The plates were then read on Victor-3 with Excitation at 340 nm and Emissions collected at 615 and 665 nm in TR-FRET protocol. […]

| SMILES | IC50 [nM] |
| --- | --- |
| O=C1N(Cc2ccc(N3CC4(COC4)C3)cn2)CCN1C[C@H](O)CN1CCc2ccccc2C1 [Compound 5, (R)-1-((5-(2-oxa-6-azaspiro[3.3]heptan-6-yl)pyridin-2-yl)methyl)-3-(3-(3,4-dihydroisoquinolin-2(1H)-yl)-2-hydroxypropyl)imidazolidin-2-one] | 50 |
| N#CC1CCN(c2ccc(CN3CCN(C[C@H](O)CN4CCc5ccccc5C4)C3=O)nc2)CC1 [Compound 9, (R)-1-(6-((3-(3-(3,4-dihydroisoquinolin-2(1H)-yl)-2-hydroxypropyl)-2-oxoimidazolidin-1-yl)methyl)pyridin-3-yl)piperidine-4-carbonitrile] | 58 |
